57 compounds from PubChem BioAssay AID463173 (ICCB-Longwood Screening Facility, Harvard Medical School, 2010) can be followed below.

In all, about 52,000 compounds went through this assay and about 4,300 (8.3%) were called active. No stated cut-off is given here; in the data, active means survival mostly below about 52% (no sharp cut-off); inactive means mostly above about 56%. The list shows a part of the results.

The test system of this assay is DeltatarO mutant. Nature of the assay: growth inhibition of S. aureus wild type versus tarO mutant, primary screen, teichoic acid synthesis inhibitors, RN4220, OD600 (AID 463173). The settings on record: OD600, 18 h, stronger effect = lower value, screened at 18.75 µg/mL (by protocol).
Regarding `Cc1cccc(N2CCN(C(=O)c3oc(=O)c4ccccc4c3-c3ccccc3)CC2)c1C`, the survival is inactive: 69%.

For `COc1ccc(CCN2C(=O)N(c3ccc(F)cc3)C(=O)C2CC(=O)Nc2ccc(F)c(F)c2)cc1` (configuration not stated), the survival is inactive: 61%. Then `Nc1ccc(-c2ccc(N)cc2C(F)(F)F)c(C(F)(F)F)c1`, with inactive: 91%. For the compound `CCOc1ccc(N(CC(=O)NCc2ccc(Cl)cc2)S(=O)(=O)c2c(C)noc2C)cc1`, the survival was inactive: 90%. Then `CCCNC(=O)CCC(=O)N1Cc2ccccc2Oc2ncccc21`, with inactive: 131%; and `CCc1ccccc1NC(=O)C1CCN(C2=NS(=O)(=O)C(c3ccc(C)c(C)c3)=C2C)CC1`, with inactive: 80%.

As for `c1ccc(-c2nc(N3CCCCC3)c3ccccc3n2)cc1`, the survival was inactive: 96%. The figure for `COc1ccc(C(=O)CN2C(=O)N(c3cc(C)ccc3C)S(=O)(=O)c3ccccc32)cc1` is inactive: 83%. The figure for `O=C(O)CN1C(=O)CCC1=O` is inactive: 97%; for `Cc1cc(C)cc(NC(=O)c2sc3nc(-c4cc5ccccc5oc4=O)[nH]c(=O)c3c2C)c1` it is active: 43%; for `COC(=O)c1c(C)sc(-c2c(-c3cccc(Cl)c3)[nH]c3c2c(=O)[nH]c(=O)n3C)c1O` it is inactive: 113%. The figure for `COc1ccc(CCNC(=O)CCc2c(C)nc3c(c(C)nn3-c3ccccc3)c2C)c(OC)c1` is active: 53%. As for `CCc1cccc(C)c1NC(=O)C(C)Sc1nc2c(c(=O)[nH]1)CCCC2` (configuration not stated), the survival is inactive: 98%. As for `COc1ccccc1C(=O)Nc1nnc(SCc2cc(=O)n3ccc(C)cc3n2)s1`, the survival is inactive: 64%. Then `Cc1ccc(OCc2ccc(-c3nc(C#N)c(N4CCC(C)CC4)o3)o2)cc1`, with inactive: 58%. Then `CC1=C(C(=O)OCc2ccc(C)cc2)C(c2ccccc2Cl)CC(=O)N1` (configuration not stated), with inactive: 69%; and `Cc1cccc(OCC(=O)Nc2ccc3c(c2)nc(CCNC(=O)c2ccco2)n3C)c1`, with inactive: 115%; and `Cc1nc2c3ccccc3nc(NNC(=O)CCC(=O)N3CCN(c4ccccc4)CC3)n2n1`, with inactive: 77%. The figure for `CCOC(=O)c1c(C)oc2nc(C)nc(NC(C)c3ccccc3)c12` (configuration not stated) is inactive: 75%; for `CCOC(=O)c1cc2c(ccn2C)n1Cc1c(Cl)cccc1Cl` it is inactive: 87%. `Cc1ccc2nc(SCC(=O)N3CCCCC3)c(C#N)cc2c1`: the survival is inactive: 112%. Then `CS(=O)(=O)N1CCc2cc(C(=O)N3CCN(c4ccc(F)cc4)CC3)ccc21`, with inactive: 48%; and `Cc1ccc(N2CC(NC(=O)c3ccc4c(c3)OCO4)CC2=O)cc1` (configuration not stated), with inactive: 96%; and `Cc1ccc(-n2c(SCC(=O)Nc3cccc(Cl)c3)nc3n[nH]c(C)c3c2=N)cc1`, with inactive: 88%. The figure for `Cc1ccccc1NC(=O)Cn1nc(-c2ccc(F)cc2)c2cnc3ccccc3c21` is active: 25%. Then `CC(=O)N1CCCc2ccc(NS(=O)(=O)c3ccc(F)cc3F)cc21`, with inactive: 74%; and `Cc1ccc(Cl)cc1N1CCN(CCNC(=O)Nc2ccc(Cl)cc2)CC1`, with active: -4%; and `COc1ccc(N2CCN(C(=O)c3nc(-c4ccc(Cl)cc4)n4c3CCCCC4)CC2)cc1`, with inactive: 81%.

Turning to `CCOC(=O)c1c(-n2cnnn2)sc(C)c1C`, the survival was inactive: 95%. The figure for `CCOc1ccc(CNC(=O)c2ccc(CS(=O)c3ccccc3)o2)cc1` (configuration not stated) is inactive: 66%. The figure for `O=C(C1CCN(S(=O)(=O)c2cccc3nonc23)CC1)N1CCN(c2ccccc2)CC1` is inactive: 72%; for `COc1ccc(NC(=O)c2nnn(Cc3ccc(Br)cc3F)c2N)c(OC)c1` it is inactive: 68%.

As to `COc1ccccc1NC(=O)c1c(NC(=O)c2ccccc2F)sc2c1CCC2`, the survival was inactive: 136%. Regarding `COc1ccc(Cn2ccc3nc(C)c(C(=O)Nc4ccc(C)c(F)c4)cc3c2=O)cc1`, the survival is inactive: 55%. The figure for `Cc1ccc(-c2cc(C(=O)NCc3ccccc3)c3c(-c4ccc(C)cc4)[nH]nc3n2)cc1` is inactive: 86%; for `COc1ccc(C(c2nnnn2CC2CCCO2)N2CCN(c3ccc(F)cc3)CC2)cc1OC` (configuration not stated) it is inactive: 103%.

In the case of `CCOc1ccc(-c2c(C)nn3c(C)c(C(=O)NCc4ccc(C)o4)cnc23)cc1OCC`, the survival is inactive: 77%. `Cc1cc(N2CCC(C)CC2)nc2ccc(NC(=O)/C=C/c3cccc(Cl)c3)cc12`: the survival is active: 53%. Turning to `CC(C)c1ccc(Nc2c(-c3ccccc3O)nc3cnccn23)cc1`, the survival is inactive: 55%. Then `CCc1ccccc1NC(=O)CSc1nnc(CC)c(CC)n1`, with inactive: 80%; and `CSc1ccc(CNC(=O)c2cc3c(=O)n(Cc4ccco4)ccc3nc2C)cc1`, with inactive: 94%; and `Cc1ccc2nc(NC(=O)c3cc(=O)c4cc(Cl)ccc4o3)sc2c1`, with inactive: 47%. The figure for `Cn1c(Oc2ccc(F)cc2)nc2c1c(=O)n(Cc1ccccc1Cl)c(=O)n2C` is inactive: 78%; for `O=C(NCCc1ccc(Cl)cc1)c1ccc(CS(=O)(=O)Cc2ccccc2F)o1` it is active: -1%. Then `CC(=O)N1CCc2c(sc3c2c(=O)n(-c2ccc(C)cc2)c(=O)n3CC(=O)Nc2ccccc2)C1`, with inactive: 99%. For the compound `Cc1ccc2c(c1)N(C(=O)N1CCC(C(=O)NCc3ccco3)CC1)CC(C)O2` (configuration not stated), the survival is inactive: 76%. As to `Nc1nc(NC(=O)CCC(=O)O)nn1-c1ccccc1`, the survival was inactive: 53%. With `CCCCOC(=O)c1ccc(NC(=O)Cc2coc3ccc(C(C)C)cc23)cc1`, the survival is inactive: 69%. The figure for `CCSc1nc2c(c(=O)[nH]c(=O)n2C)n1CC(O)COc1ccc(Cl)cc1` (configuration not stated) is inactive: 167%; for `COc1ccc(N2CCN(C(=O)c3ccc4c(c3)CCN4S(C)(=O)=O)CC2)cc1` it is inactive: 57%.

For the compound `Cc1c(Cl)cccc1NC(=O)Cn1nc(C)c2sc3ccccc3c2c1=O`, the survival was inactive: 73%. The figure for `Cc1ccc(C)c(S(=O)(=O)c2nnn3c2nc(Nc2ccc(F)c(Cl)c2)c2sccc23)c1` is inactive: 71%; for `Cc1nc(SCC(=O)Nc2ccc(Br)cc2)[nH]c(=O)c1Cc1ccccc1` it is inactive: 59%. Then `CSc1ncc(C(=O)N2CCN(c3ccc(F)cc3)CC2)c(C)n1`, with inactive: 69%. Consider `COc1cccc(-c2nn(C)c3sc(C(=O)N4CCN(c5cccc(C)c5)C(C)C4)cc23)c1` (configuration not stated), for which the survival was inactive: 66%. The figure for `CCc1nnc(SCc2nc(-c3ccc(OC)cc3)oc2C)c2cc3sccc3n12` is inactive: 83%. Then `COc1ccccc1CCNC(=O)Cn1ccc2cc(S(=O)(=O)N3CCCCCC3)ccc21`, with inactive: 87%.
